Reference: the supplement of paper PMC11417369
The other results are listed elsewhere or left out.

Test system: PF3D7_0420300 AP2 domain 1 (GST-tagged)
Experiment: gcPBM binding intensity (ln(normalized median fluorescence intensity)); higher = stronger DNA binding
Procedure, shortened: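 GST-tagged P. falciparum DNA-binding domains produced in E. coli were incubated for 1 h on an Agilent 4 × 180k array of primer-extended double-stranded 36-bp intergenic genomic probes with negative controls. Binding intensity is the highest Masliner-normalised natural-log median intensity across replicate spots of either probe orientation, with bound protein detected by Alexa488 anti-GST antibody at 488 nm.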

Row | Sequence | gcPBM binding intensity (ln)
1 | TATATTTCTTATTACATACACACATATACATATATG [CACACA_site3202] | 9.58
2 | ATAGATGCATATTATACACACATATGTAAATACATT [CACACA_site4691] | 9.48
3 | CCACTATATAAAATCACACATTTATATTATACATAT [CACACA_site4570] | 9.37
4 | TATTGGTAATGTAAATGTACATATAGATATTTACAT [XGTACX_site1922] | 9.12
5 | TTTATTTTAATTTATTGTACATTGTTATCAAGTGCA [XGTACX_site1110] | 8.87
6 | TTGAAGTTAATAAAAACTTTATACATGAAATTATTT [CACACA_negctrl_site684] | 8.89
7 | AAAAAAAGAAATTAGGTGCATAGCATTAACCGATAA [GTGCAC_site9582] | 9.3
8 | ATAATAGTTAAATGTACACACTAACTACATGGAATA [CACACA_site5753] | 9.45
9 | TTGAAAAATCAGCACACACACAAATACATACATATT [CACACA_site7505] | 9.9
10 | CTAAAAAAATAATAAAGTACACAAACGAATATATAA [XGTACX_site668] | 9.77
11 | ACATATGGCACATATGTACACACGTATAGATAATAT [CACACA_site2024] | 9.56
12 | TTTTTTTTTTTTTTTGCACACTATATTTAATATAAG [CACACA_site2444] | 9.09
13 | CTTTTTTGGTACATCACACATTTTTACATTCCCTTT [CACACA_site4957] | 9.59
14 | CCATATTTAATAAAATGTACTCATTCTTTTATTTTA [XGTACX_site7802] | 9.16
15 | TTAATAGTGGAAATATGTACATAATTTTGGTCTTTT [XGTACX_site1664] | 9.25
16 | CTGTTCAAAATATGAACACACACATATATATATATA [CACACA_site8638] | 9.47
17 | CTTTAAATGATGTAAACACACACATATACATTATTA [CACACA_site9035] | 9.45
18 | CACATAAAAAAATAAACACACATATGTATATAAATA [CACACA_site7483] | 9.73
19 | TAAAAAAAAATAAAAAGTACATATATATATATATAT [XGTACX_site1155] | 9.14
20 | AATGGAAAAATAGGCACACACACATAAATACAGATA [CACACA_site4844] | 10.3
21 | AATATGAAACAAGACGCACACATAAATAAATAAATA [CACACA_site326] | 9.68
22 | AGTGCTACTCATGATTGAATAGAGGAAAAGGCGGTG [GTGCAC_negctrl_site49] | 9.24
23 | TTTTTTATGTTCAATTGTACATATACATATATATAT [XGTACX_site6013] | 9.31

Row | Sequence | gcPBM binding intensity (ln)
24 | TTCATATTTCATATATGTACTTATGTTCAATATAGT [XGTACX_site3811] | 9.1
25 | TAATTACACTTTAAAAGTACATATATAATAACATTA [XGTACX_site379] | 9
26 | CAAACAATTAAACAAACACACATATACATGTATATA [CACACA_site2060] | 9.74
27 | AAAATAAGCCATATACGTACATACATATATAAATAT [XGTACX_site4197] | 9.48
28 | ATAGGAAAAAGTATTGGTACACATACATATACGTTA [XGTACX_site5819] | 9.5
29 | TTATATGTTTTGTGTACACAATTTATTAAATTAATA [CACACA_site5645] | 9.23
30 | ACACAAAAAATTAAGTGTACTCATCAAGAAAAAAAA [XGTACX_site3456] | 9.23
31 | TATATATTTTTTTCATGTACATATAAATTAATTAAA [XGTACX_site8680] | 9.04
32 | ATAAAATACCCTGATCTATTACATATTATATTCTGC [GTGCAC_negctrl_site311] | 9.18
33 | GATTTAATAGATACGAGTACAGAAATTGTATACATA [XGTACX_site7563] | 9.32
34 | TACATATTTTTCTTTTCACACATGGAAAAAAAAGGT [CACACA_site5146] | 9.11
35 | ATATATATATATATATATATATATATATATAAGTGG [XGTACX_negctrl_site90] | 9.08
36 | TATTAATTCATTTTTTTTTTTTTTTTTTTTTTTTTT [CACACA_negctrl_site1215] | 9.13
37 | AATATATTTATTATAACACACACATATATATATTAT [CACACA_site8264] | 9.81
38 | TATTTTTTTTTTCACTGTACATACAACAACAAATAT [XGTACX_site8835] | 9.15
39 | CCCTTAATTTAAAACACACAAACAAATAAGTTAGTT [CACACA_site3793] | 9.3
40 | TAGCATGATTTGCCTTGTACACAACCGTTTTAATAA [XGTACX_site7911] | 9.29
41 | AAGTGTTCTTGTTATACACACACATATATATATATA [CACACA_site8251] | 9.8
42 | TATGATAAATATGGAGCACACACACCGAAACATACA [CACACA_site8031] | 10
43 | TAAATGAAAATATGTACACACTTGAAAATTTTTATG [CACACA_site5599] | 9.34
44 | TTTTGTATTTTTCACACACACATAAGTAAACAATAA [CACACA_site1899] | 9.76
45 | TATATTATATATATATGTACATATTATTATATCTAA [XGTACX_site3835] | 8.96
46 | TACAAGAACAAAAAATGTACGAAATAATTACAAATA [XGTACX_site5824] | 9.35

Row | Sequence | gcPBM binding intensity (ln)
47 | AATCTTTTTAAATCTTGATTAATTTCGGGTATATAT [TGCATGCA_negctrl_site107] | 9.23
48 | AAACATATGGTATTTAAACACACAAAAAAGAAAGAA [CACACA_site8239] | 9.85
49 | ATGTTGTGGATATATACACACATACATATTTATATA [CACACA_site6857] | 9.34
50 | ATACAATAATATAAATGTACAAATTATATCTTCATT [XGTACX_site8994] | 9.25
51 | AAATTAAATATTATATTAATTCTTAAATTTTTTTTT [CACACA_negctrl_site439] | 8.67
52 | AAATTTAAAAATAAAGAACACACATATGTAAAATAT [CACACA_site9252] | 9.7
53 | AATTTCAATTTCTGTTGTACACTTTTTAATAGTAAA [XGTACX_site4085] | 9.22
54 | AAAAAAAAAAAAAAAACACACAAACATCAAATTACT [CACACA_site6950] | 9.73
55 | TATATACGCATGCGCACACACAAGTGGGAAATTTGG [CACACA_site1785] | 9.52
56 | TTATTATATAAATAAAAAAAAAAAAAAAAAAAAAAA [CACACA_negctrl_site1455] | 8.28
57 | ATATTTATATGAATCACACACAAAAAATATAGAGAT [CACACA_site7775] | 9.88
58 | ACTGTGGGAATAACCACACACACACCCACATATATA [CACACA_site3542] | 10
59 | CATAAATACAAATATACACACATATATATATATATA [CACACA_site2633] | 9.61
60 | AATATGTTTTTTAGATGTACAGATTAAATATTAAAA [XGTACX_site7308] | 8.89
61 | TTTTTTTCATATATATGTACATAATTATATATGCAT [XGTACX_site3257] | 9.12
62 | AAATAGTAAGAGATGGTGCGTTTCCTTTTTTTTTTT [GTGCAC_site9663] | 9.42
63 | TTTAAAAATATTTCACGTACGCATTTTAAAAAGTAT [XGTACX_site8026] | 9.04
64 | CGTGGGAGCAGACACACACACACACCCATATATATA [CACACA_site334] | 10.1
65 | TTAATTATATGGTAAACAAATAAATGTGAAAGGAAA [XGTACX_negctrl_site389] | 9.39
66 | TATTTATAAATATACGCACACATTAATATATATATA [CACACA_site3969] | 9.42
67 | AGTATGTAAATGTGCCATATATATATTAAATACATA [CACACA_negctrl_site14] | 9.23
68 | ATATTATTTATTTTTAAATTATATTGATTATTTTTT [CACACA_negctrl_site451] | 9.12
69 | GTTGGTAGGCGGTACGGTACACGTAGTATTTTTCTT [XGTACX_site4213] | 9.39

Row | Sequence | gcPBM binding intensity (ln)
70 | TTGAAGTGTACTATTTTATATATATATATACATTTT [CACACA_negctrl_site224] | 9.33
71 | TAGAAATATATTTATTGTACATTGTATATATTATAT [XGTACX_site7584] | 9.11
72 | TAATGTTCCTATATAGTGCAATTATGTTTTATTTCT | 9.48
73 | TTTTAATTTTTAAGACGTACTATCATTTGATAATAA [XGTACX_site3942] | 8.63
74 | TACGATGTTTTAAAATGTACATAAAAGTCACATAAG [XGTACX_site3297] | 9.09
75 | TCTTTTTTTTTTACTAGTACTTAAAAAAAAAATATG [XGTACX_site4395] | 8.99
76 | ATTATGTGCCAATACACACACACATCTATATTTATA [CACACA_site6359] | 10
77 | TATAAATTTGTTCAATGTACATGTAAAGATATAATC [XGTACX_site371] | 9.31
78 | TTATTTTTTATAAAATGTACATATATTTTAAATATA [XGTACX_site4026] | 8.98
79 | TGAAGCAAAAACAAAACACACATATAAATAAATAAA [CACACA_site3925] | 9.72
80 | ACCAATCCAAAAGAATGTACCCATGTTTTAAAATAT [XGTACX_site2907] | 9.29
81 | TTTTGTTAACATATAGAAAAGAACAAAGTTAAAAAG [XGTACX_negctrl_site462] | 9.2
82 | TTCGTATGCATGAAATGTACATGATATTATTATAAA [XGTACX_site4542] | 9.06
83 | AATATGGGCATACATGTGCACTTTTTCCCGTGGTTT | 9.4
84 | ACGAAAAGATATATATGTACATATATTAAAAAAAAA [XGTACX_site1517] | 9.18
85 | TTAATTAAATATAGGGGTACATATTATATATGTTTT [XGTACX_site3677] | 9.34
86 | AAATATTTCTGCAAGGTGCACTTTATAAATCTTTGA | 9.09
87 | AAGAAATTTATTTATTGTACAATATATAATTTGTTT [XGTACX_site2478] | 9.2
88 | TTATATGCATATTTTTGTACACAACATTGTTGTATA [XGTACX_site8707] | 9.25
89 | ATGTATATTTTTATGTGTACGTAATAAAACATAATA [XGTACX_site7777] | 9.2
